Whole data set: some 33,000 sequences, median “E-score (-0.5 to 0.5)” near -0.053, cut for the highest 2% near 0.37. Some of the results follow.
Each sequence was assayed against Hap1 (UniProt P0CE41) (assay: PBM E-score (8-mer binding enrichment) (E-score (-0.5 to 0.5)); higher = stronger / more preferred TF binding; most listed sequences are background and not binding sites). Details: protein concentration: 200 nM; construct: GST-DNA-binding domain.
Method in brief: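 Masliner-normalised scans of fluorescent anti-GST signal were the basis for scoring. That signal came from GST-tagged yeast transcription factors applied at about 100-200 nM to double-stranded universal all-10-mer Agilent arrays on fresh or once-stripped slides. Each ungapped eight-base word, pooled with its reverse complement, received an E-score from the Universal PBM Analysis Suite.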

Chain of UniProt P0CE41 (P0CE41 whole entry, the tested form may be a part): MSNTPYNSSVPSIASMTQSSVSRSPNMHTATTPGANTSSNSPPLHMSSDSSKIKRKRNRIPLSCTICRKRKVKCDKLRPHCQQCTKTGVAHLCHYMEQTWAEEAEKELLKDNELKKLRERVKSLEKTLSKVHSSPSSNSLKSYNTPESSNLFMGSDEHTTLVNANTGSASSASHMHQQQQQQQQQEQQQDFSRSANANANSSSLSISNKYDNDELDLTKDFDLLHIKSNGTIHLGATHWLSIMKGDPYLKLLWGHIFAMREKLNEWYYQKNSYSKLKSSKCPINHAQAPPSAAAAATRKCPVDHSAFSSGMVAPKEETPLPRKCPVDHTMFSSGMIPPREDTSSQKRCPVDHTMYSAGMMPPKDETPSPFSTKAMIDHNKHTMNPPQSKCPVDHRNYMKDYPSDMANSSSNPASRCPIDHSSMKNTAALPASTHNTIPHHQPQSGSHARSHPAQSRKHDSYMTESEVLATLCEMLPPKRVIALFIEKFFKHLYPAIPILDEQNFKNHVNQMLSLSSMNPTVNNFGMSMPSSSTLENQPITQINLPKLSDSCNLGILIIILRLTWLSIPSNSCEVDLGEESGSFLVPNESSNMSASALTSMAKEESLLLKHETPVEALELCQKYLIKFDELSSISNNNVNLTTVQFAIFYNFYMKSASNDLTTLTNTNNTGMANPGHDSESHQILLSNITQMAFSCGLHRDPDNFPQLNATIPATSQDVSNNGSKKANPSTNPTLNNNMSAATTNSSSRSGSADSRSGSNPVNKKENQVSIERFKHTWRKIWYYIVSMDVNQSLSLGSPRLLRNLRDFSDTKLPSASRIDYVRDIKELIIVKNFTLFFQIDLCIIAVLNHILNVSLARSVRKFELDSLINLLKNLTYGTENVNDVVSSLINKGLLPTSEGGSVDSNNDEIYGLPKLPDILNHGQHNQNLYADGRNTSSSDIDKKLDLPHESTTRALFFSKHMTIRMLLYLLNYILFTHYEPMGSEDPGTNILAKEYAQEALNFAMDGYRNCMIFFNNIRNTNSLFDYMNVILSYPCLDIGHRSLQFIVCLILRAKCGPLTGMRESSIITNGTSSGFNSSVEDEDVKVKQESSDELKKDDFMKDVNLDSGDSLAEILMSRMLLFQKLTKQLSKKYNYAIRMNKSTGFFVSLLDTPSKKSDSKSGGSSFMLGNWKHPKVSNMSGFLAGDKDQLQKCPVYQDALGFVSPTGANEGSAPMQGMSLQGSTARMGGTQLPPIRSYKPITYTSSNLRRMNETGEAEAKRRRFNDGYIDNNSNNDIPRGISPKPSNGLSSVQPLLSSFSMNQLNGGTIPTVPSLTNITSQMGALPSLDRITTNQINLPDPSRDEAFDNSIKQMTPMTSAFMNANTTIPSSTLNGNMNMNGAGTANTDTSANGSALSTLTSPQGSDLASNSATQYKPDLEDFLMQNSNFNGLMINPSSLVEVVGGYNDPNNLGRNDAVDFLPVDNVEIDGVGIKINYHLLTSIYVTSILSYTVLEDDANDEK

Sequence | PBM E-score
ACGACACT | -0.182
ACAGTCGC | -0.234
CCACTCTC | 0.0582
CCGACCAA | 0.204
GGGCAGCA | -0.182
AGGCTCGA | -0.164
ACGTCAGC | -0.0646
AGCCAATC | -0.00265
GCTATGAC | 0.011
CCGTCACG | 0.209
GAGTGGAA | -0.0273
AGGGCCAA | -0.195
CGTAGTAA | -0.0685
AATCCAGG | -0.13
AATGCGAT | 0.0235
ACAGACGA | -0.101
TCCGAGCA | 0.402
CCAAAGGC | -0.245
ACCTAGCA | -0.158
AAGATATG | 0.00745
GAAGGCAA | -0.137
ACGGTTTC | 0.156
GCACATAC | -0.147
ACGTCTCA | -0.113
CACGTGAG | -0.173

Sequence | PBM E-score
GCCCGATA | 0.423
CCGCAAAG | 0.201
CTAGCTCA | -0.308
AGTATGCC | 0.0174
CATGGATC | 0.0587
AGGAGCAA | -0.0675
CTGGTCGA | -0.0394
GATAGTTA | 0.0916
AATTCGAA | -0.249
GGTGCCAA | -0.0723
ACACTTGG | -0.0889
ATCGGCTC | 0.311
ACTTCGAG | -0.0766
GACCTTGA | -0.296
AGACGTTA | -0.107
AGGTAGGG | -0.218
AAACATCA | -0.189
AGAATTCC | 0.031
TGTCAGAA | -0.373
GCTACAAA | -0.0565
ACGTTGAA | -0.0505
ATGCAACC | -0.0334
CACTATTC | 0.0152
CATGCACG | -0.156
AAGGATGA | -0.247

Sequence | PBM E-score
AAGTTCGG | 0.306
AAGAGATG | -0.191
CTGGACCA | -0.164
CCCGCCTA | 0.136
GGATTAAC | 0.195
AAGCCCGA | 0.333
AATAAGAC | -0.3
CGTCTAGC | -0.148
CGAGAATC | 0.0475
ATCGACCA | -0.251
ACACAATC | -0.0512
CAGGGATC | -0.199
GACAAATA | 0.0891
AGGACTCG | -0.13
TGATTGCA | -0.0557
ACCCGCAC | 0.23
CAGACGGG | -0.0349
AGGATTGC | -0.126
AAATCCCG | 0.379
CGCCGCTC | 0.186
ATGATATC | -0.0808
ATGAGCCA | -0.206
CCCCACGC | -0.189
TCACTAGA | -0.00688
CTTAGTCC | 0.168

Sequence | PBM E-score
TAGCCGAA | 0.314
TACCGCTA | 0.159
CGTGTGGA | -0.0408
AGACACTC | -0.185
AGAACCGC | 0.0105
CAGTAATG | -0.223
ATACTCTA | -0.0913
GTCGCCGA | 0.246
GCAGTAAC | -0.0514
AACCCGTC | 0.093
ACTTCAAC | -0.0481
GAGACACA | -0.0116
AAAAACTA | -0.0564
ATTAGATG | -0.0455
CATTCAAC | -0.283
TAAGGGAA | -0.286
CATCCGGC | 0.342
TTAAAGAA | -0.0249
CGTTATAC | 0.023
CCTCGGCC | 0.346
ACACCCAC | -0.0615
CAAATAAG | 0.0685
AGTAACTA | -0.0567
AATTGAGG | 0.00911
AAGATCCT | -0.0836

Sequence | PBM E-score
GCCCAAGA | -0.22
ATATATCA | 0.0242
GTGCATAA | -0.00941
GTGGTCCA | -0.181
ACCAAACT | -0.13
ACCATGAA | 0.00818
AGTTGGCC | -0.155
GCTTCCAC | 0.0486
ATGCCAGA | -0.2
CGGGCGCC | 0.125
AGAGGGGC | -0.234
GCTGTAAC | 0.061
AATCACCC | 0.137
AAAGATAC | -0.0584
ACCGCCTC | 0.0176
AAGGCAAC | -0.111
CAGATTTA | 0.0647
ACGGGACA | 0.203
AAGGTCGC | 0.126
ACAGATCT | -0.169
CTATTCAG | -0.306
AGCTCCTG | -0.134
AATAAAGG | -0.212
TGAGTTAA | -0.188
CCCAAGAG | -0.178

Sequence | PBM E-score
AGGGCACC | -0.12
AGAAGCCG | 0.275
GTGGTGTA | -0.176
AGCGACTC | -0.124
GCTAGTCA | -0.209
CGCAGAGA | -0.263
GGTGAAAA | 0.22
AATAAATA | 0.212
CACCCGAG | 0.268
ACTTGGCT | -0.208
AGCTATTC | -0.0945
GGCGCTCA | 0.00056
CTAACAGA | -0.101
GATCTCCC | -0.0839
ACAACAAT | -0.237
ATGCAGTC | -0.2
AAGTCGTA | -0.342
ATATATCG | 0.34
GGGGGCAA | -0.0427
ACTCCCTG | -0.23
CAGACCTC | -0.0611
CAGGGCAA | -0.195
AGTCAACA | -0.232
TACGGCGA | 0.134
GTACAATA | -0.205

Sequence | PBM E-score
GGCGGCGA | 0.213
AGAGCATC | -0.0993
CCGAGTAC | 0.358
CCTATAAC | -0.188
CAAAATAG | -0.181
AGCATGGA | -0.242
AGCGACAG | 0.118
CATCAAGA | -0.143
AACGTAAC | -0.105
AAAAGTCT | -0.114
TGAATACA | -0.0875
ACAACCCA | -0.0643
AGTGCATC | -0.192
AAGGGAGG | -0.0176
AAGGCGGA | 0.123
CGTCGACG | 0.229
GTAGTTGA | -0.192
CCAGGATA | -0.0904
CATGCGGA | 0.236
ACACACAG | -0.136
AGTGCACC | 0.0417
ACGTTATA | -0.113
